# Experimental data reported in the supplement of paper PMC11880418.
# Where a name gives a salt, the structure may show the parent alone. This is one part of the list. The data scatter; read single values as rough.
# Tested on: SUM159
# Test: ALDHbr (CSC) cell proportion score relative to DMSO vehicle (ratio to DMSO); breast (SUM159) / gastric (MKN45) / pancreatic (PANC1) / colon cancer lines; ALDHbr cells have high ALDH activity and are rich in cancer stem cells (CSC); higher = more CSC (ALDHbr) cells remaining
# Conditions: 10 µM; 72 h
# 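Note: High-content imaging of ALDEFLUOR-stained cells with Hoechst-labelled nuclei in 384-well plates, triplicate wells, scored as Z-score against 0.1% DMSO vehicle, negative meaning fewer ALDHbr cells.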
row,SMILES,ALDHbr
1,C=C1c2c(Cl)ccc(O)c2C(O)=C2C(=O)[C@]3(O)C(O)=C(C(N)=O)C(=O)[C@@H](N(C)C)[C@@H]3[C@@H](O)[C@H]12.O=C(O)c1cc(S(=O)(=O)O)ccc1O [Meclocycline sulfosalicylate],0.198
2,COCC1=C(C(=O)OC(C)OC(=O)OC(C)C)N2C(=O)[C@@H](NC(=O)/C(=N\OC)c3csc(N)n3)[C@H]2SC1 (stereo partly specified) [Cefpodoxime proxetil],0.911
3,CCOc1ccccc1OC(c1ccccc1)C1CNCCO1 (stereo unspecified) [Reboxetine mesylate],1.25
4,CCN(CC)CCOC(=O)c1ccc(N)cc1 [Procaine hydrochloride],1.02

# Tested on: T84
# Test: as above
# Conditions: 10 µM; 72 h
row,SMILES,ALDHbr
1,O=C(O)CN(CCN(CC(=O)O)CC(=O)O)CCN(CC(=O)O)CC(=O)O [Pentetic acid],1.04
2,Cc1cc(CC(=O)O)n(C)c1C(=O)c1ccc(Cl)cc1 [Zomepirac sodium salt],0.936
3,CCN[C@H]1C[C@H](C)S(=O)(=O)c2sc(S(N)(=O)=O)cc21 [Dorzolamide hydrochloride],1.02
4,CCCOc1cc(N)ccc1C(=O)OCCN(CC)CC [Propoxycaine hydrochloride],1.05
5,COc1ccc(CC(C)NCC(O)c2ccc(O)c(NC=O)c2)cc1 (stereo unspecified) [Formoterol fumarate],1
6,OC(c1cc(C(F)(F)F)nc2c(C(F)(F)F)cccc12)C1CCCCN1 (stereo unspecified) [Mefloquine hydrochloride],0.436
7,CC(CCc1ccc(O)cc1)NCCc1ccc(O)c(O)c1 (stereo unspecified) [Dobutamine hydrochloride],1.07
